Measured values as given in the supplement of paper PMC3334620.
Over roughly 33,000 sequences, “E-score (-0.5 to 0.5)” has its median near -0.011; the highest 2% begin near 0.28. The list shows a part of the results.

target: T1, Gcr1 (UniProt P07261); test: PBM E-score (8-mer binding enrichment) (E-score (-0.5 to 0.5)); higher = stronger / more preferred TF binding; most listed sequences are background and not binding sites; conditions: protein concentration: 100 nM; construct: GST-full length
T1 sequence: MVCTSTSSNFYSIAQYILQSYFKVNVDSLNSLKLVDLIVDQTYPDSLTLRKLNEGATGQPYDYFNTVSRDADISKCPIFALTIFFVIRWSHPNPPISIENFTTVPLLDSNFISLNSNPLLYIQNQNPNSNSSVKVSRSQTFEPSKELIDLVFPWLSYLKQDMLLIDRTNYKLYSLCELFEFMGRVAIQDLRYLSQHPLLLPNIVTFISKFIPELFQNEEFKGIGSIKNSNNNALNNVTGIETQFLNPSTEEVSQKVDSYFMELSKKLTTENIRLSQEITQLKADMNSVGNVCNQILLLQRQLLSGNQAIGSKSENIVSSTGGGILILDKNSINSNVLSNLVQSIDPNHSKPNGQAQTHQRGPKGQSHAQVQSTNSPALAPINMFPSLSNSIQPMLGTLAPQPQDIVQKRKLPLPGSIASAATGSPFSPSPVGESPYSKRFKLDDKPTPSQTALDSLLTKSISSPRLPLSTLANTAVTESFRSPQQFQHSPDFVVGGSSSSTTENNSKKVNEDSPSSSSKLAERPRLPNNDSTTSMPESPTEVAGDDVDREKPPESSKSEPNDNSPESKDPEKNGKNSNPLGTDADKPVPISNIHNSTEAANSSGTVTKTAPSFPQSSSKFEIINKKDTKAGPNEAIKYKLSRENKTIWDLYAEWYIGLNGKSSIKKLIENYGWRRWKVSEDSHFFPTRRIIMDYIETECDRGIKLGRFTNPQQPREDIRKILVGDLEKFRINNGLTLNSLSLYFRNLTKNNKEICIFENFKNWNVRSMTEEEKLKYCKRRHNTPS
Method in brief: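 For each ungapped eight-base word taken together with its reverse complement, the Universal PBM Analysis Suite assigned an E-score. Binding data came from GST-tagged yeast transcription factors, applied at about 100-200 nM, on universal all-10-mer Agilent arrays made double-stranded by primer extension. Fluorescent anti-GST marked bound protein, and scans were normalised with masliner.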

| Sequence | PBM E-score |
| --- | --- |
| CAAACACG | -0.0267 |
| GACTAGAC | -0.0113 |
| CAGCCCGC | -0.0661 |
| GTTACGAA | 0.00332 |
| ACGTGCAA | -0.109 |
| GAAACCAC | 0.131 |
| GTCTCGAA | -0.0587 |
| AGTCTCTC | -0.232 |
| AAACAATA | 0.0136 |
| ACGCTGCC | 0.339 |
| ATTGGCAG | 0.0782 |
| CAGCAAAG | -0.202 |
| TATCTTGA | -0.103 |
| CCCAAGAA | 0.236 |
| GTTATAAC | 0.107 |
| ATAACTCG | -0.0437 |
| AACAGAGT | -0.15 |
| GTACGTAA | -0.0819 |
| AATGCGAA | 0.136 |
| GATGGATA | 0.0193 |
| ACCTTACT | -0.0612 |
| TAAGGCGA | 0.118 |
| GGTAAACC | -0.152 |
| AATCCAAT | 0.191 |
| GCCATAAA | 0.0512 |

| Sequence | PBM E-score |
| --- | --- |
| ACTATAGA | 0.0257 |
| CCATACAG | -0.0185 |
| ACCCCTGG | -0.126 |
| AATTGAAC | -0.0431 |
| GAGCCCCA | 0.169 |
| AGCGGCAA | 0.045 |
| ACCACCGG | 0.167 |
| CACCACTC | 0.134 |
| ACTCACTC | -0.117 |
| CAGCAAGC | -0.311 |
| GTCACGCA | -0.111 |
| ACCATCTA | -0.14 |
| GCCTATGA | -0.0151 |
| AGTTCAAG | -0.0913 |
| CATTTGCA | 0.0561 |
| AAGTTGAA | 0.0298 |
| CCATACTC | 0.0592 |
| ATGTCTCG | -0.104 |
| AGAACCTA | 0.0206 |
| CGAGCTTC | 0.371 |
| AGCGCGCA | 0.0716 |
| AATCCCTC | -0.0454 |
| GAAGCGCC | 0.206 |
| TAATATAA | 0.135 |
| ACTATGCA | 0.112 |

| Sequence | PBM E-score |
| --- | --- |
| TAGCTTAA | -0.228 |
| GACGCAAA | 0.0943 |
| GCTGACTA | -0.0111 |
| AGGCATTC | 0.0927 |
| ACATCTCG | 0.0177 |
| CCTGCTAG | -0.323 |
| AAGGATGC | 0.313 |
| CCATGCGA | -0.0915 |
| CCCGCCCC | -0.00257 |
| ATCACTAA | -0.0192 |
| AAGAATCC | 0.391 |
| AATGAGTG | 0.0323 |
| ATGCGGTC | -0.076 |
| CTGATCGC | -0.159 |
| AGGTGTAC | -0.199 |
| AGTTCCAT | -0.107 |
| TATCGTGA | -0.0769 |
| AAACACCT | 0.00912 |
| GAGTACCA | 0.00288 |
| CCTCAATA | 0.00834 |
| CTACTGAG | -0.0519 |
| TCCAAAGA | 0.0425 |
| ATTACTGA | -0.0681 |
| ACGCACCG | 0.052 |
| CGTTGCGA | -0.113 |

| Sequence | PBM E-score |
| --- | --- |
| AAGAAAAA | 0.164 |
| ATGACCTG | -0.134 |
| GCGCTGAA | 0.00238 |
| TTAGACAA | -0.00955 |
| GGCGTCTA | 0.342 |
| GGTTGTGA | -0.197 |
| ACGCCCAC | 0.099 |
| GGACTACC | 0.1 |
| AAGATGTG | 0.169 |
| AAAAGACA | 0.0152 |
| ACGCACTG | -0.0816 |
| GCTATTTA | -0.162 |
| GAAGCATA | -0.108 |
| ATGACGGA | -0.06 |
| CATGGAAA | 0.00067 |
| ACAGCAGG | -0.0307 |
| AATCATCA | 0.0743 |
| CCACGCGG | -0.0377 |
| CCCATTAA | 0.0379 |
| GAGTGGGA | 0.115 |
| ACCGAGAA | -0.0242 |
| CTCCTAAC | 0.0288 |
| CTGTTTAC | -0.0882 |
| ACTCTGCC | -0.2 |
| CCATAGAC | 0.0102 |

| Sequence | PBM E-score |
| --- | --- |
| GTTATCCA | -0.231 |
| CCAGTTAA | 0.192 |
| AATTCATA | 0.0378 |
| GAGCGCTA | -0.0096 |
| AGTGACAT | -0.0435 |
| GCCAGGAA | -0.0468 |
| CAAAGCTC | -0.0592 |
| CCAAACAG | 0.0983 |
| GAGTAGAC | 0.119 |
| AACGTAGG | -0.0478 |
| AACACGTA | 0.0489 |
| GACCGTCC | -0.221 |
| ACGAACCA | 0.00119 |
| CCATTTGC | -0.0113 |
| CAGCGAGG | -0.0786 |
| AAACGATT | -0.0519 |
| GCATCTGA | 0.185 |
| CAAGTAAG | -0.0274 |
| GCCTATAC | -0.0323 |
| AGATTCCT | 0.399 |
| GCAGTGCC | -0.192 |
| ATATGTCA | 0.0665 |
| CAAGGTGA | -0.0448 |
| ATAACCGA | 0.0605 |
| TGGAACCA | 0.357 |

| Sequence | PBM E-score |
| --- | --- |
| CGGCAGAA | -0.00941 |
| GGTCACGA | -0.138 |
| CGCAGCCA | 0.365 |
| CGCCGAAC | 0.0411 |
| GTTTGCGA | -0.00846 |
| ATGCGTAC | -0.0819 |
| TCACAAGA | -0.0185 |
| CGCGTTCC | 0.125 |
| ATTCGACC | -0.0638 |
| TGTAATAA | 0.101 |
| CTGATGAA | -0.0679 |
| AACCTGTC | -0.0353 |
| ATAGCTCG | 0.0541 |
| CTACCAGA | 0.131 |
| ACGACACA | 0.051 |
| ATAGCCAT | -0.215 |
| AGTTGGGA | 0.15 |
| GAGTGAGA | -0.208 |
| GTATCCAC | 0.0417 |
| TTAGCAAA | -0.18 |
| AAAGTGCG | 0.105 |
| TCCATTAA | 0.23 |
| GCGCCAGA | 0.0605 |
| TACCGCCA | -0.0256 |
| CTCAAAAG | 0.258 |

| Sequence | PBM E-score |
| --- | --- |
| CGTATGCC | -0.0765 |
| GACATAGA | -0.155 |
| AGAGTTAG | -0.0275 |
| CTGTATAA | 0.124 |
| AGCTTGCG | -0.194 |
| AATGTAGA | -0.0445 |
| AGCTCTGC | -0.241 |
| TGTACAAA | 0.121 |
| CAATTGGC | -0.0157 |
| CCGGAGCA | 0.00192 |
| ACCGAACA | 0.101 |
| GCTTGTAC | 0.0759 |
| ATTCATAG | 0.025 |
| GCCTTAGA | -0.0411 |
| CCTACACC | -0.0615 |
| CATATGGA | 0.0826 |
| GAGCCGAC | 0.0489 |
| CGCCTATA | 0.19 |
| TGACGCCA | -0.0776 |
| AAATTAAT | 0.0362 |
| AGTCATCG | -0.0672 |
| TCGTGTAA | 0.257 |
